Among all 48,000 compounds or so, about 120 (0.25%) were called active. Inconclusive results (about 4%) are left out. Calls follow the shape of the dose curve; as a rule, active = well fitted activation curve with a large enough effect; inconclusive = small, poorly fitted or top-dose-only effect, or another doubt; inactive = no such curve, though single readings can be large or run the other way. This is one part of the list.
Assay: Primary qHTS for Identification of Small Molecule Activators of Huntingtin-Antisense Promoter Activity; also: nearly all actives have a fitted effect of over 55% in size
Settings: HEK293 HTT-AS promoter firefly luciferase reporter, 24 h; series mostly up to 57.5 µM; activity change, positive = activation: at the top concentration
Procedure, shortened: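 HEK293 cells carrying firefly luciferase reporters were seeded at 2,500 per well in Opti-MEM and cultured for 24 h. They were then treated with compounds at up to 57.5 uM final for 24 h at 37 degrees C before Dual-Glo luminescence readout.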

Activity change, positive = activation, inactive:
CCCCc1nc2ccccc2n1CC(=O)N(COCC)c1c(C)cccc1CC -26.9%
Cc1cc(C)cc(NC(=O)C2CCN(S(=O)(=O)c3ccc4c(c3)oc(=O)n4C)CC2)c1 -9.2%
COc1cc(NC(=O)c2ccc(-n3cnc4cccnc43)cc2)cc(OC)c1 -5.95%
COc1ccc(/C=C/C(=O)Nc2ccc3nc(N4CCCCC4)cc(C)c3c2)cc1OC -15.8%
Cc1ccc(S(=O)(=O)N(CC(=O)Nc2ccc3c(c2)OCO3)c2ccc(C)c(Cl)c2)cc1 -34.6%
CCN(CCN(C)C)C(=O)C1CCN(S(=O)(=O)c2c(C)noc2/C=C/c2ccccc2F)CC1 -47.7%
Cc1cc(C)c(NC(=O)Cn2nnc(-c3nc(-c4ccccc4)no3)c2N)c(C)c1 0.603%
CCCOC(=O)c1ccc(O)cc1 34.8% [at 116 µM, percent change from vehicle, -100% = no light]
Cc1cc(C)c2c(n1)SCCN2C(=O)Nc1ccc(C(=O)Nc2ccc(C(C)C)cc2)cc1 -36.5%
CCN(CC)c1ccc2cc(-c3nc(-c4cc(OC)c(OC)c(OC)c4)no3)c(=O)oc2c1 -1.07%
COC(=O)c1ccccc1NC(=O)Cn1c(=O)n(CCCC(=O)NCc2ccccc2OC)c(=O)c2ccccc21 -10.8%
Cc1ccc(C)c(NC(=O)C(c2ccccc2)N2Cc3ccccc3C2=O)c1 (stereo unspecified) -18.3%
CCOc1ccc(-n2nc(CO)c(C(=O)NCc3cccc(OC)c3)n2)cc1 18.6%
CC(=O)c1ccc(NC(=O)c2nc3nc(C)cc(C(F)F)n3n2)cc1 -1.75%
Cc1cc(C)cc(-n2ccn(CC(=O)Nc3ccccc3F)c(=O)c2=O)c1 -5.1%
COc1cc2cc(CNc3ccccc3)c(=O)n(CC(=O)Nc3cc(C)cc(C)c3)c2cc1OC -20.7%
O=C(CCC1N=C2c3ccccc3N=C(SCc3ccc(F)cc3)N2C1=O)NC1CCCCC1 (stereo unspecified) -5.89%
Cc1ccc(-c2cc(C(F)(F)F)nn2-c2ccc(S(N)(=O)=O)cc2)cc1
COc1ccccc1NC(=O)C1CCN(c2cnccn2)CC1 -8.03%
CC(=O)N1CCCc2cc(S(=O)(=O)N3CCN(c4cccc(C(F)(F)F)c4)CC3)ccc21 -29.7%
CSc1ncc(C(=O)Nc2cc(Cl)ccc2C)c(-c2ccccc2)n1 -21.2%
COc1ccc(C)cc1NC(=O)C1CCCN(S(=O)(=O)c2ccc3c(c2)oc(=O)n3C)C1 (stereo unspecified) -23.8%
CC(=O)Nc1ccc(S(=O)(=O)N2CCN(c3ccccc3)CC2)cc1 -24.8%
Cc1cccc(Cn2c(SCc3ccc(C(=O)NCCc4ccccc4)cc3)nc3cccnc32)c1 -8.86%
Cc1ccc(SCc2nc(-c3ccc(C(=O)NCc4ccccc4Cl)cc3)oc2C)cc1 -24%
CC(=O)Nc1cccc(NC(=O)C2(c3cccs3)CCOCC2)c1 -10.3%
COc1cccc(-c2nnc3n(CCc4ccccc4)c(=O)c4ccccc4n23)c1O -23.9%
O=C(O)C1=CC(O)C(O)[C@H](O)C1 (stereo partly specified) -10.2%
CCOC(=O)CC(=O)CSc1nc2ccccc2c(=O)n1CCc1ccccc1 -4.95%
COc1cccc(CNC(=O)CN(c2ccc(C(C)C)cc2)S(=O)(=O)c2c(C)n[nH]c2C)c1 -21.3%
Cn1c(=O)c(=O)n(C)c2cc(N3CCCC3)c(NC(=O)c3ccc(C(C)(C)C)cc3)cc21 -16.3%
Cn1cc(S(=O)(=O)N2CCCC2)cc1C(=O)Nc1ccc(C(F)(F)F)cc1 -38.3%
COc1ccccc1-c1nnc(C2CCN(S(=O)(=O)c3ccccc3)CC2)o1 9.33%
O=C(Nc1ccc(NC(=O)c2ccc(Br)cc2)c(Cl)c1)c1ccc(Br)cc1 -22.5%
COc1ccc(CNc2oc(COc3cccc(C)c3)nc2C#N)cc1 -8.59%
COc1ccc(C(=O)Nc2nc3ccc(S(=O)(=O)N4CCCC4)cc3s2)cc1 -10.2%
CCc1nn(CC(=O)N2CCN(c3cccc(C(F)(F)F)c3)CC2)c(=O)c2cc3occc3n12 -7.35%
COc1cccc2cc(-c3nnc(-c4ccc(Cl)cc4)o3)c(=O)oc12 -9.28%
CCCCCn1c(=O)[nH]c2cc(C(=O)Nc3ccc(OC)c(OC)c3)ccc2c1=O -9.8%
COc1cccc(N2CCN(C(=O)Cn3cnc4onc(-c5ccc(F)cc5)c4c3=O)CC2)c1 -37.7%
COc1cccc(-c2nc(CS(=O)(=O)CC(=O)NCCCN3CCN(C)CC3)c(C)o2)c1 4.9%
CC(C)CCOc1ccc(Oc2nc(N(C)C)nc(N(C)C)n2)nn1 -34.5%
COc1ccc2c(CNCc3cccs3)c(C(=O)O)n(Cc3ccc(F)cc3Cl)c2c1 -38.9%
COc1ccccc1-n1ncc2c(=O)[nH]c(SCC(=O)Nc3cccc(F)c3)nc21 -18.9%
CCOc1ccccc1N(C)C(=O)Cn1cnc2onc(-c3ccc(F)cc3)c2c1=O -6.06%
CCOc1ccc(C(=O)c2oc3ccccc3c2NC(=O)c2cc(-c3ccccc3)on2)cc1 -12.9%
Cc1ccc(NC(=O)C(Cc2ccccc2)n2cccc2)c(C)c1 (stereo unspecified) -27.4%
CCCCCn1c(=N)c(S(=O)(=O)c2ccccc2)cc2c(=O)n3cccc(C)c3nc21 -8.93%
Cc1cc(Nc2ccc(C(C)C)cc2)nc(-n2nc(C)cc2C)n1 -18.3%
CC(C)Oc1cccc(C(=O)Nc2ccc(-c3nc4cc(Cl)cc(Cl)c4o3)cc2)c1 -17.3%
Cc1cccc2sc(N(Cc3cccnc3)C(=O)Cc3ccccc3)nc12 -25%
Cc1ccc(NC(=O)CSc2nc(-c3cccs3)cc(C(F)(F)F)n2)cc1C -34.9%
COc1cc(-c2noc(-c3ccc(NC4CCCCC4)c([N+](=O)[O-])c3)n2)cc(OC)c1OC -6.82%
Cc1cccc(NC(=O)CSc2cn(CC(=O)N3CCOCC3)c3ccccc23)c1 4.26%
COc1ccc(S(=O)(=O)N(CCc2ccccc2)CC(=O)Nc2cc(C)ccc2C)cc1 -21.5%
CCc1ccc(NC(=O)C2CCN(S(=O)(=O)c3c(C)noc3/C=C/c3cccs3)CC2)cc1 -22.5%
CCn1cc(C(=O)NCCOC)c(=O)c2cc(S(=O)(=O)N3CCOCC3)ccc21 -6.21%
CCSc1nnc2c(n1)OC(c1ccc(OCC(=O)O)cc1)Nc1ccccc1-2 (stereo unspecified) 1.7%
O=C(CCC1N=C2c3ccccc3N=C(SCC(=O)Nc3ccccc3F)N2C1=O)NCc1cccs1 (stereo unspecified) -3.01%
CCOC(=O)C1=C(c2ccccc2)Nc2ncnn2C1c1ccc(Cl)cc1 (stereo unspecified) -16.2%
COc1ccc(CNC(=O)c2ccc3c(c2)NC(=O)C(CS(=O)(=O)Cc2ccccc2Cl)N3)cc1 (stereo unspecified) -22.3%
CCOc1ccccc1CNC(=O)CN1C(=O)CCn2nc(-c3cn(C)c4ccccc34)cc21 -17.7%
O=C(c1ccc2c(c1)N(Cc1cccc(Cl)c1)C(=O)c1ccccc1S2(=O)=O)N1CCC(Cc2ccccc2)CC1 -24.2%
COc1cc(Cl)c(C)cc1Nc1c2c(nc3ccccc13)CCC2 -43.1%
Cc1nc2ccc(S(=O)(=O)N(CC(=O)Nc3ccc(Cl)cc3)Cc3ccccc3)cc2s1 -29.7%
CCOC(=O)c1cccc(NS(=O)(=O)c2c(C)nc3sc(C)cn3c2=O)c1 -31.3%
CC(C)CCNC(=O)c1cccc(-n2cnc3cccnc32)c1 -21.5%
Cc1ccc(C)c(N2CCN(S(=O)(=O)c3ccc4c(c3)CC(=O)N4C)CC2)c1 -2.45%
Cc1ccc(C(=O)COC(=O)c2cccc(NC(=O)c3ccc(Br)cc3)c2)cc1 -41.4%
COc1cccc(CNC(=O)Cn2c(SCC(=O)Nc3ccc(F)cc3)nc3ccccc32)c1 -27.4%
Cc1ccc2c(c1)-c1c(c(C(=O)NCCc3ccccc3)nn1C)CS2 -14.5%
Cc1cccc(CS(=O)(=O)Cc2ccc(C(=O)NC(C)c3ccccc3)o2)c1 (stereo unspecified) -11.9%
CCCN(C(=O)Cc1c(C(=O)O)[nH]c2ccc(Cl)cc12)c1ccc(OCC)cc1 -6.86%
CCOCCCNC(=O)c1[nH]c2cc(OC)ccc2c1Sc1ccccc1 -3.17%
COc1ccc(CCC(=O)NCc2nc3cccnc3n2Cc2ccc(C)cc2)cc1 -17.6%
Cc1ccc(S(=O)(=O)NCC(c2ccco2)N2CCN(c3ccccc3F)CC2)cc1 (stereo unspecified) -25.9%
COc1ccccc1C(=O)Nc1ccccc1SCc1cc(=O)c2ccccc2[nH]1 -2.13%
CCN(CC)C(=O)Cn1c(=O)n(CCCCCC(=O)NCc2ccccc2)c(=O)c2sccc21 1.95%
O=C(c1ccc2c(c1)N(Cc1ccccc1F)C(=O)c1ccccc1S2=O)N1CCCCC1 (stereo unspecified) -22.2%
c1cc(CN2CCCCC2)cc(OCCCNc2nc3ccccc3s2)c1 -4.26%
O=C(NC1CC(=O)N(c2ccc(F)cc2)C1)C1CCCCC1 (stereo unspecified) -11%
CCOc1cc(/C=C(\C#N)C(=O)Nc2ccccc2C)ccc1OCc1cc(=O)n2nc(CC)sc2n1 -0.124%
CCOc1ccc(-c2csc(-c3nc(-c4ccc(Br)s4)cs3)n2)cc1 -2.39%
Cc1ccc(NC(=O)C2CCN(c3nnc(-n4cccc4)s3)CC2)cc1Cl -21.8%
Cc1nnc(SCC(=O)NCc2ccc(N(C)C)cc2)c2nn(-c3ccccc3)c(C)c12 -31.7%
CNCC(O)c1ccc(O)c(O)c1 (stereo unspecified) -6.55%
COc1cccc(C(c2c(O)cc(C)n(Cc3ccco3)c2=O)N2CCC(C)CC2)c1 (stereo unspecified) 2.28%
COc1ccc(OC)c2sc(N(Cc3cccnc3)C(=O)c3ccc(C(C)=O)cc3)nc12 -33.6%
COc1ccc(-c2nc(C)c(CCNC(=O)c3cc(OC)c(OC)c(OC)c3)s2)cc1OC 6.84%
CC(NC(=O)C(=O)Nc1c2c(nn1-c1ccccc1)CSC2)c1ccccc1 (stereo unspecified) -23.6%
Cc1ccc2c(c1)c(=O)c(C(=O)c1ccncc1)cn2CC(=O)Nc1ccc(C(C)C)cc1 -14.5%
Cc1ccc(N2CC(NC(=O)c3ccc(Br)o3)CC2=O)cc1C (stereo unspecified) -14.1%
COc1cccc(NC(=O)Cn2nc3c4ccccc4n(Cc4cccc(F)c4)cc-3c2=O)c1 -39.1%
Cc1nn(CCC(=O)NCc2ccc(N(C)C)cc2)c(=O)c2nn(-c3ccccc3)c(C)c12 -17.2%
Cc1nnc(N2CCN(c3ccccc3F)CC2)c2c1nnn2Cc1ccccc1Cl 11%
CC(C)(C)c1ccc(C(=O)Nc2ccc(-c3nc4cc(Cl)ccc4o3)cc2)cc1 -20.4%

Reference: PubChem BioAssay AID1508624 (National Center for Advancing Translational Sciences (NCATS), 2021)
